Measured values from article PMC4350111.
Results are given in words; binding and its absence hold for the method and conditions named. For some assays here: Binding seen in cells or lysates may run through a third protein. Some results given as binding are weak or reduced against the parent protein; the word gives no strength. Each block holds one substance with its values, some of them ahead of it.

By UniProt entry, the sequences of proteins in these tests, tags left out. Where a name states a change or a piece, a line headed by the entry shows the natural chain unless it says otherwise.
UniProt P03372: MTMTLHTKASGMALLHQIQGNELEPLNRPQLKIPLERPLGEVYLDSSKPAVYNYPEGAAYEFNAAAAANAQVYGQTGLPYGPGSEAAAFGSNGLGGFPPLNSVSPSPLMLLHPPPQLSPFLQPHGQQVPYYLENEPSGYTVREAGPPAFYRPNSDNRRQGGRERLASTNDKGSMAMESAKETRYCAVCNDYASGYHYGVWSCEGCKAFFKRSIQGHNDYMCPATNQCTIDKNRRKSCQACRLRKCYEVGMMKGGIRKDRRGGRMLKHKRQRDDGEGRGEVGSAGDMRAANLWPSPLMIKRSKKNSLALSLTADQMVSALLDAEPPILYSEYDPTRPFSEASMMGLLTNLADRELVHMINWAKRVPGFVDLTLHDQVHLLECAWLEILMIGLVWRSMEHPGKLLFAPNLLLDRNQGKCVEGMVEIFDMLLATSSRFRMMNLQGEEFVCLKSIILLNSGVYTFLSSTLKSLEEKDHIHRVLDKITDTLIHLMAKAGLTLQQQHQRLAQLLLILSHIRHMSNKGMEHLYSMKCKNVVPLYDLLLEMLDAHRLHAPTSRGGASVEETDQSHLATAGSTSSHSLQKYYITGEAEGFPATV
UniProt Q9UNE7: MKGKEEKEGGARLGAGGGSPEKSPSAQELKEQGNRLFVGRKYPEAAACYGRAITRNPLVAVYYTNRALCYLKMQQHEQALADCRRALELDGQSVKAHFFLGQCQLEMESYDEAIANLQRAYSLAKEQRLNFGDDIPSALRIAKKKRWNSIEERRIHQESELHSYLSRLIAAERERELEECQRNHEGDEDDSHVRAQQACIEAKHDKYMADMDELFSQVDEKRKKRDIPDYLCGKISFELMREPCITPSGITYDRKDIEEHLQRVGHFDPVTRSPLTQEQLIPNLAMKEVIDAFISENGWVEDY
UniProt Q99728: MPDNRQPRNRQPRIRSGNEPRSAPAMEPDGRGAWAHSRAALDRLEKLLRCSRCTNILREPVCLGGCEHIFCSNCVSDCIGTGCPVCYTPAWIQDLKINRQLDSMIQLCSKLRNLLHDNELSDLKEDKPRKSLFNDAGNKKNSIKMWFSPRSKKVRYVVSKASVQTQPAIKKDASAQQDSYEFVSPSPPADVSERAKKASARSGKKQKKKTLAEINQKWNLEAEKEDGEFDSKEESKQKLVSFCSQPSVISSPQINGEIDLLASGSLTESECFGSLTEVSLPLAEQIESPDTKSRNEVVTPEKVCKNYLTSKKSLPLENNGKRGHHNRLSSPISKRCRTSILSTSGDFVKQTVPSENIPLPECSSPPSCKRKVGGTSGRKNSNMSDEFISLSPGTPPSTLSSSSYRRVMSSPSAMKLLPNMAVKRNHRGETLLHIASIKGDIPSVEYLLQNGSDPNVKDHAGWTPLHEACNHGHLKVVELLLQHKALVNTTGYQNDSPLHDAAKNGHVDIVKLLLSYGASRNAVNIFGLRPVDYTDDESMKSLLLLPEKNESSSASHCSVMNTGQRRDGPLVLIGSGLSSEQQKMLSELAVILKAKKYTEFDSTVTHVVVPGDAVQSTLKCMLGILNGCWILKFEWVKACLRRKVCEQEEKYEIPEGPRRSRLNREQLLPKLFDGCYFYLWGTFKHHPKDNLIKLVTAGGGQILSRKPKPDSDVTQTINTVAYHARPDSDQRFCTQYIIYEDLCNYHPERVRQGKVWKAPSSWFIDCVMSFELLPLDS
UniProt Q00987: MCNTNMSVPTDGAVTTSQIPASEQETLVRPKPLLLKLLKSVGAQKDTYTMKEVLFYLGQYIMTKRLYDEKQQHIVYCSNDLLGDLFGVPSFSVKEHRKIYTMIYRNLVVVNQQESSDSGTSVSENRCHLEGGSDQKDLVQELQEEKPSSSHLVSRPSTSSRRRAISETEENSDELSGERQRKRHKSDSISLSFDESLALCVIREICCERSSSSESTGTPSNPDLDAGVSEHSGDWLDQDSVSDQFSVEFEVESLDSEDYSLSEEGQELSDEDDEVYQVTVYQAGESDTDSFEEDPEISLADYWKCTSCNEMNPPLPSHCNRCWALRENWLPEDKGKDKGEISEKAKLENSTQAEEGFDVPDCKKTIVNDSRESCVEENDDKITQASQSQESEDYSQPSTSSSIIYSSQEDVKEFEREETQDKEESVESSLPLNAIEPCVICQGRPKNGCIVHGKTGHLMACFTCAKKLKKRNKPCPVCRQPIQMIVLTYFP
UniProt Q01167: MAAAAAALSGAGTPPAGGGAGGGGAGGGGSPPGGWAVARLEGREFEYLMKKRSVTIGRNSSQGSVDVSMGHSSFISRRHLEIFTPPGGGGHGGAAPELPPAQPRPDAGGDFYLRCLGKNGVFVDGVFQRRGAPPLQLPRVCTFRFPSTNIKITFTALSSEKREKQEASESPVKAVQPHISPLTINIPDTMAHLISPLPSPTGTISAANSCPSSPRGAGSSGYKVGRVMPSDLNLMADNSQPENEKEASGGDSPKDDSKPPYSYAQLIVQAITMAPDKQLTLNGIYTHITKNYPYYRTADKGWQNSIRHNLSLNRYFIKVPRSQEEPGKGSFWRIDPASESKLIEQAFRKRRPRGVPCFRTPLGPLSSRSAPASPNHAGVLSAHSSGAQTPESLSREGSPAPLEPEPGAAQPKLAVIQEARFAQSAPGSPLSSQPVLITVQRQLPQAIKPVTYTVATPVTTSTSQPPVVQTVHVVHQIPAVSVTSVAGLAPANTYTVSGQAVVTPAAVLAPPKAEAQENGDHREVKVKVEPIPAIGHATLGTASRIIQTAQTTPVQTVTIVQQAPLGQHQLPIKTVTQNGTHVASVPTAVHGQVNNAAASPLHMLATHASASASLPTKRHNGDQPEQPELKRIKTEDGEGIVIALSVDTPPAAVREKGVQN

What was measured:
[1] = molecular target: Flag-ERα (UniProt P03372); assay: co-IP; tagged proteins transiently expressed in HEK 293T; immunoprecipitation by one tag, Western blot by the other (in some panels vice versa); in Fig. 2g, 4h and 4i cells treated with 10 μM MG132 for 8 h; in Fig. 4h FOXK2 overexpressed, in Fig. 4i FOXK2 knocked down by siRNA
[2] = molecular target: C terminus of Hsc70-interacting protein (CHIP) (UniProt Q9UNE7); assay: as above
[3] = molecular target: HA-BARD1 (UniProt Q99728); assay: as above
[4] = molecular target: EGFP-ERα (UniProt P03372); assay: as above
[5] = molecular target: Flag-ERα (UniProt P03372); assay: co-IP; re-immunoprecipitation: MCF-7 cells transfected with Flag-ERα and HA-BARD1; immunoprecipitation with anti-Flag, re-immunoprecipitation with anti-HA, Western blot with anti-FOXK2, anti-Flag or anti-HA
[6] = molecular target: HA-BARD1 (UniProt Q99728); assay: as above
[7] = molecular target: endogenous BARD1 (BRCA1-associated RING domain protein 1) (human (endogenous in MCF-7)) (UniProt Q99728); assay: co-IP; endogenous proteins from MCF-7 (and T47D) lysates; immunoprecipitation with an antibody against one partner, Western blot for the other, or vice versa; anti-IgG as control; lysis in 50 mM Tris-HCl pH 8.0, 150 mM NaCl, 0.1% SDS, 1% NP-40, 0.5% sodium deoxycholate; 4°C overnight
[8] = molecular target: endogenous MDM2 (murine double minute 2) (human (endogenous in MCF-7)) (UniProt Q00987); assay: as above
[9] = molecular target: endogenous ERα (estrogen receptor alpha) (human (endogenous in MCF-7 and T47D)) (UniProt P03372); assay: as above
[10] = molecular target: pBIND-ERα fusion protein (UniProt P03372); assay: two-hybrid; CheckMate mammalian two-hybrid system (Promega) in HEK 293T with the pG5-luc reporter; luciferase measured 36 h after transfection

Substance: FOXK2 (transfected, construct not named, Fig. 4b) (from UniProt Q01167 1-660)
binding [2]: no binding

Substance: endogenous FOXK2 (Forkhead box K2) (from UniProt Q01167 1-660)
binding [5]: binds
binding [6]: binds
binding [7]: binds
binding [8]: no binding
binding [9]: binds

Substance: pACT-FOXK2 fusion protein (from UniProt Q01167 1-660)
binding [10]: binds

The remaining lines, values ahead:

binding [1]: binds
Substance: EGFP-FOXK2 (from UniProt Q01167 1-660)

binding [3]: binds
binding [4]: binds
Substance: Flag-tagged full-length FOXK2 (from UniProt Q01167 1-660)

binding [3]: binds
Substance: His-Flag-FOXK2 (from UniProt Q01167 1-660)
